# Over roughly 2,900 compounds, “NF-kB SEAP reporter activity, fold change vs agonist alone” has its median near 0.99; the highest 2% begin near 2.6. The list shows a part of the results.
# Experiments:
# [1] = tested on: RAW-Dual; assay: NF-kB SEAP reporter activity, fold change vs agonist alone; cytotoxicity flag (confluency mask): not cytotoxic; higher = enhanced NF-kB activity
# Procedure, shortened: (§1)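 Reporter activity is given as fold change relative to agonist-alone wells. To measure it, 50 nL of library stock was pin-tooled onto RAW-Dual macrophages (50,000 cells/well, DMEM, 384-well plates), a PRR agonist followed 1 h later, and cells stayed at 37 °C, 5% CO2. Twenty hours on, supernatant was assayed for IRF (QuantiLuc luminescence) and NF-κB (QuantiBlue, 620 nm absorbance), and wells under 70% of agonist-control IncuCyte confluency in both mask sets were marked cytotoxic.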
# [2] = tested on: RAW-Dual; assay: NF-kB SEAP reporter activity, fold change vs agonist alone; higher = enhanced NF-kB activity
# Procedure, shortened: as §1
# [3] = tested on: RAW-Dual; assay: NF-kB SEAP reporter activity, fold change vs agonist alone; cytotoxicity flag (confluency mask): cytotoxic (confluency <70% of control); higher = enhanced NF-kB activity
# Procedure, shortened: as §1
# [4] = agonist: ODN 1826 (TLR9) 0.5 ug/mL
# [5] = agonist: Pam2CSK4 (TLR2/6) 0.1 ug/mL
# [6] = agonist: Pam3CSK4 (TLR2/1) 0.1 ug/mL
# [7] = library stock concentration (final ~1000-fold dilution): 10 mM, cytotoxicity flag (confluency mask): not cytotoxic, agonist: Imiquimod (TLR7) […]
# [8] = library stock concentration (final ~1000-fold dilution): 10 mM, cytotoxicity flag (confluency mask): not cytotoxic, agonist: MPLA (TLR4) […]
compound,measurement,setting,value
CN1CCN2c3ccccc3Cc3ccccc3C2C1.Cl (configuration not stated) (library stock concentration (final ~1000-fold dilution): 10 mM),NF-kB SEAP reporter activity,[1]; agonist: LPS (TLR4) 0.1 ug/mL,1.08
same,NF-kB SEAP reporter activity,[1]; [4],0.732
same,NF-kB SEAP reporter activity,[1]; [5],0.813
same,NF-kB SEAP reporter activity,[1]; [6],0.995
CN1CCN2c3ccccc3Cc3ccccc3C2C1.Cl (configuration not stated),NF-kB SEAP reporter activity,[2]; [7],1.32
same,NF-kB SEAP reporter activity,[2]; [8],1.13
C=C1c2cccc(O)c2C(=O)C2=C(O)C3(O)C(=O)C(C(N)=O)=C(O)C(N(C)C)C3C(O)C12.Cl (configuration not stated),NF-kB SEAP reporter activity,"[2]; library stock concentration (final ~1000-fold dilution): 10 mM water, cytotoxicity flag (confluency mask): not cytotoxic, agonist: Imiquimod (TLR7) […]",0.915
same,NF-kB SEAP reporter activity,"[2]; library stock concentration (final ~1000-fold dilution): 10 mM water, cytotoxicity flag (confluency mask): not cytotoxic, agonist: MPLA (TLR4) […]",1.08
C=C1c2cccc(O)c2C(=O)C2=C(O)C3(O)C(=O)C(C(N)=O)=C(O)C(N(C)C)C3C(O)C12.Cl (configuration not stated) (library stock concentration (final ~1000-fold dilution): 10 mM water),NF-kB SEAP reporter activity,[1]; agonist: LPS (TLR4) 0.1 ug/mL,1.12
same,NF-kB SEAP reporter activity,[1]; [4],1.14
same,NF-kB SEAP reporter activity,[1]; [5],1.26
same,NF-kB SEAP reporter activity,[1]; [6],1.05
CCN(CC)CCOc1ccc(Nc2ncc3cc(-c4c(Cl)cccc4Cl)c(=O)n(C)c3n2)cc1 (library stock concentration (final ~1000-fold dilution): 10 mM),NF-kB SEAP reporter activity,[3]; agonist: LPS (TLR4) 0.1 ug/mL,0.238
same,NF-kB SEAP reporter activity,[3]; [4],0.236
same,NF-kB SEAP reporter activity,[3]; [5],0.0747
same,NF-kB SEAP reporter activity,[3]; [6],0.145
CCN(CC)CCOc1ccc(Nc2ncc3cc(-c4c(Cl)cccc4Cl)c(=O)n(C)c3n2)cc1,NF-kB SEAP reporter activity,"[2]; library stock concentration (final ~1000-fold dilution): 10 mM, cytotoxicity flag (confluency mask): cytotoxic (confluency <70% of control), agonist: Imiquimod (TLR7) […]",0.492
same,NF-kB SEAP reporter activity,"[2]; library stock concentration (final ~1000-fold dilution): 10 mM, cytotoxicity flag (confluency mask): cytotoxic (confluency <70% of control), agonist: MPLA (TLR4) […]",0.332
CS(=O)(=O)c1ccc(-c2cnc(NCc3ccco3)n3cnnc23)cc1,NF-kB SEAP reporter activity,[2]; [7],0.866
same,NF-kB SEAP reporter activity,[2]; [8],1.06
CS(=O)(=O)c1ccc(-c2cnc(NCc3ccco3)n3cnnc23)cc1 (library stock concentration (final ~1000-fold dilution): 10 mM),NF-kB SEAP reporter activity,[1]; agonist: LPS (TLR4) 0.1 ug/mL,1.09
same,NF-kB SEAP reporter activity,[1]; [4],0.968
same,NF-kB SEAP reporter activity,[1]; [5],0.796
same,NF-kB SEAP reporter activity,[1]; [6],1.14
CCn1nc(C2CCN(C(=O)CCO)CC2)nc1-c1cnc(N)c(-c2nnc(C(C)(C)C)o2)n1 (library stock concentration (final ~1000-fold dilution): 10 mM),NF-kB SEAP reporter activity,[1]; agonist: LPS (TLR4) 0.1 ug/mL,1.61
same,NF-kB SEAP reporter activity,[1]; [4],1.1
same,NF-kB SEAP reporter activity,[1]; [5],1.15
same,NF-kB SEAP reporter activity,[1]; [6],1
CCn1nc(C2CCN(C(=O)CCO)CC2)nc1-c1cnc(N)c(-c2nnc(C(C)(C)C)o2)n1,NF-kB SEAP reporter activity,[2]; [7],0.872
same,NF-kB SEAP reporter activity,[2]; [8],1.18
Cc1nc2cc(F)c(F)cc2n1-c1cncc(Nc2ccc(C(F)(F)F)cc2)n1,NF-kB SEAP reporter activity,[2]; [7],1.56
same,NF-kB SEAP reporter activity,[2]; [8],1.33
Cc1nc2cc(F)c(F)cc2n1-c1cncc(Nc2ccc(C(F)(F)F)cc2)n1 (library stock concentration (final ~1000-fold dilution): 10 mM),NF-kB SEAP reporter activity,[1]; agonist: LPS (TLR4) 0.1 ug/mL,1.36
same,NF-kB SEAP reporter activity,[1]; [4],1.31
same,NF-kB SEAP reporter activity,[1]; [5],0.571
same,NF-kB SEAP reporter activity,[1]; [6],0.582
COc1cc2ncnc(Nc3ccc(F)c(Cl)c3)c2cc1OCCCN1CCOCC1.Cl (library stock concentration (final ~1000-fold dilution): 10 mM),NF-kB SEAP reporter activity,[1]; agonist: LPS (TLR4) 0.1 ug/mL,1.23
same,NF-kB SEAP reporter activity,[1]; [4],0.277
same,NF-kB SEAP reporter activity,[1]; [5],0.967
same,NF-kB SEAP reporter activity,[1]; [6],0.737
COc1cc2ncnc(Nc3ccc(F)c(Cl)c3)c2cc1OCCCN1CCOCC1.Cl,NF-kB SEAP reporter activity,[2]; [8],1.29
COc1ccc(C2OCC3C(c4ccc(OC)c(OC)c4)OCC23)cc1OC (configuration not stated),NF-kB SEAP reporter activity,[2]; [7],0.74
same,NF-kB SEAP reporter activity,[2]; [8],1.19
COc1ccc(C2OCC3C(c4ccc(OC)c(OC)c4)OCC23)cc1OC (configuration not stated) (library stock concentration (final ~1000-fold dilution): 10 mM),NF-kB SEAP reporter activity,[1]; agonist: LPS (TLR4) 0.1 ug/mL,1.39
same,NF-kB SEAP reporter activity,[1]; [4],1.18
same,NF-kB SEAP reporter activity,[1]; [5],1.22
same,NF-kB SEAP reporter activity,[1]; [6],1.42

# Source: the supplement of paper PMC10037445
